55 molecules from PMC4336329 (PLoS ONE, 2015) can be followed below.

Out of some 310,000 compounds screened, about 14,000 (4.5%) showed an effect of 50% or more. The effect is printed as a negative number. Some of the results follow.
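Further: peak tail current of the secondary pulse compared with the same well before compound.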

Sequence of human ether-à-go-go-related gene (hERG) potassium channel (Q12809 whole entry, looked up): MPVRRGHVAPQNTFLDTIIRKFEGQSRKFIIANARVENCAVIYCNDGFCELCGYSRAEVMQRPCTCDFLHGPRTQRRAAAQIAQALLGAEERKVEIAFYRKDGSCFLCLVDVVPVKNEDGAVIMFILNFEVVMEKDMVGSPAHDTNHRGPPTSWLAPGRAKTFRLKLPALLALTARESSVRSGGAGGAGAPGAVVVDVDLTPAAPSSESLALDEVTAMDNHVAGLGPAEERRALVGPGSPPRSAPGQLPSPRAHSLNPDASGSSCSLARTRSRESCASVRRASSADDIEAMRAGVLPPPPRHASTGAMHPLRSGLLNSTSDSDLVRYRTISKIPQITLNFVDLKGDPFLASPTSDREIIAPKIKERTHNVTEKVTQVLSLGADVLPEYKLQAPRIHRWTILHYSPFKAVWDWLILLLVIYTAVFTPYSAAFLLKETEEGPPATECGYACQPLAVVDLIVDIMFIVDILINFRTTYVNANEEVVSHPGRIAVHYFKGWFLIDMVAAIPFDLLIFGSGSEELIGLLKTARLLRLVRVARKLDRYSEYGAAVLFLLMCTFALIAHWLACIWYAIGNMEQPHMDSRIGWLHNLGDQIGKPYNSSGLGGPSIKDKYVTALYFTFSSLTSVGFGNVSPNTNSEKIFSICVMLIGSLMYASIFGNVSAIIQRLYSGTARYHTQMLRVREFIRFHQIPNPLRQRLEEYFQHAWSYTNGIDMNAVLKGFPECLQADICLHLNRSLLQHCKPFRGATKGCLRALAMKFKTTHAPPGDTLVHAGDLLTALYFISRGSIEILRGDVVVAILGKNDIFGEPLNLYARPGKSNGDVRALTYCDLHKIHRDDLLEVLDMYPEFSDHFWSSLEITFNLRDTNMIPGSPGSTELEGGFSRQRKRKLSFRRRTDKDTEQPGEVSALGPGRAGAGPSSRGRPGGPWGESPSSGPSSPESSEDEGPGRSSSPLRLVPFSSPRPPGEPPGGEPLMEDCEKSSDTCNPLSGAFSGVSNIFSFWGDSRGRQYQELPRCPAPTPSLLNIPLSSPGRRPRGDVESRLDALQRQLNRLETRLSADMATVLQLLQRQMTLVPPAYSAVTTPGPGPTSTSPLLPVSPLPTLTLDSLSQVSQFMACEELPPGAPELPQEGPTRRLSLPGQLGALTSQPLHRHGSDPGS

The assay has as its target human ether-à-go-go-related gene (hERG) potassium channel (human, UniProt Q12809). The assay can be described thus: primary screen, population patch clamp on CHO cells stably expressing hERG.
With `Cc1ccsc1/C=N\NC(=O)CC(=O)NCc1ccccc1`, the “hERG current change (%, negative = inhibition) at 10uM” value was determined as 14.2%.
As for `Cc1cnc(C(=O)Nc2ccc(-n3cnnn3)cc2)cn1`, the “hERG current change (%, negative = inhibition) at 10uM” value is given as -7.49%.
Turning to `Cc1cccc2c(=O)c(C(=O)N3CCCCCC3)c[nH]c12`, the “hERG current change (%, negative = inhibition) at 10uM” value is -0.176%.
`COc1cccc(-c2ccc(=O)n(CC(=O)Nc3ccc(C(=O)N4CCCC4)cc3)n2)c1`: the “hERG current change (%, negative = inhibition) at 10uM” value is given as -15.4%.
In the case of `O=c1c2ccccc2oc2ccc(NCCCN3CCOCC3)cc12`, the “hERG current change (%, negative = inhibition) at 10uM” value is reported as -41.9%.
To `O=C(NCc1ccc2c(c1)OCO2)c1ccc(S(=O)(=O)NCC2CCCO2)cc1` (stereo not shown) belongs -9.62%.
On to `Cc1ccc(NC(=O)/C(=C\c2cccnc2)NC(=O)c2ccco2)cc1`, for which the “hERG current change (%, negative = inhibition) at 10uM” value was -28.5%.
On to `CN(C)S(=O)(=O)c1ccc(N2CCCC2)c(C(=O)NNC(=O)COc2cccc(F)c2)c1`, for which the “hERG current change (%, negative = inhibition) at 10uM” value is -6.57%.
On to `CC(C)(C)C1=Nn2c(nnc2-c2n[nH]c3c2CCC3)SC1`, for which the “hERG current change (%, negative = inhibition) at 10uM” value is reported as -7.6%.
To `C=CCN1C(=Nc2cccnc2)SCC1(O)c1ccc(C)cc1` (stereo not shown) belongs 4.64%.
The same measure for `CCc1ccc(C(=O)NNC(=O)c2n[nH]c(=O)c3ccccc23)cc1`: 13.6%; for `O=C(CCCN=C1NS(=O)(=O)c2ccccc21)OCC(=O)c1ccc(F)cc1`: -32.3%; for `Nc1c(C(=O)NC23CC4CC(CC(C4)C2)C3)sc2nc3c(c(C(F)(F)F)c12)CCC3`: 0.00528%.
In the case of `Cc1cccc(NC(=O)CSCC(=O)N2CCN(C(=O)c3ccco3)CC2)c1`, the “hERG current change (%, negative = inhibition) at 10uM” value was -30.5%.
As for `Cc1cc(OCC(=O)Nc2ccc(CN3CCOCC3)cc2)c2c(C)cc(=O)oc2c1`, the “hERG current change (%, negative = inhibition) at 10uM” value was 4.32%.
As to `NC(=O)COC(=O)c1cc(-c2cccs2)nn1-c1ccccc1`, the “hERG current change (%, negative = inhibition) at 10uM” value is -9.72%.
Take `O=C(CSc1nnc(-c2ccc(C(F)(F)F)cn2)o1)Nc1cccc(Cl)c1`: the “hERG current change (%, negative = inhibition) at 10uM” value is 5.72%.
Turning to `Nn1c(SC/C=C/c2ccccc2)nnc1-c1ccncc1`, the “hERG current change (%, negative = inhibition) at 10uM” value is given as -8.06%.
Take `O=C(Nc1ccccc1F)Nc1cccc2ccc(O)cc12`: the “hERG current change (%, negative = inhibition) at 10uM” value was 11.4%.
For `C/C(CC(=O)Nc1ccc(N(C)C)cc1)=N\NC(=O)C(=O)NCc1ccccc1`, the “hERG current change (%, negative = inhibition) at 10uM” value is recorded as -1.15%.
Take `CCN(CC)S(=O)(=O)N1CCC(C(=O)NCC2COc3ccccc3O2)CC1` (stereo not shown): the “hERG current change (%, negative = inhibition) at 10uM” value was -10.9%.
The same measure for `O=C(Cc1ccccc1[N+](=O)[O-])Nc1ccccc1C(=O)N1CCCC1`: 23.2%; for `Cc1cccc(CSCCNC(=O)c2ccc(CN3CCOCC3)cc2)c1`: -28.3%; for `COc1ccc(/C=N\NC(=O)CCc2c(C)n[nH]c2C)c(OC)c1OC`: 24.7%.
For the molecule `CCc1cc(=O)oc2cc(OCC=C(C)C)ccc12`, the “hERG current change (%, negative = inhibition) at 10uM” value is on record as -11.4%.
As for `O=C(Nc1ccc2c(c1)OCCO2)C1CCN(C(=O)c2ccc([N+](=O)[O-])cc2)CC1`, the “hERG current change (%, negative = inhibition) at 10uM” value was -65.6%.
The same measure for `CC(=O)N1c2ccc(S(=O)(=O)N3CCC(C(=O)Nc4cc(C)cc(C)c4)CC3)cc2CC1C` (stereo not shown): 2%; for `COc1ccccc1-n1c([S-])c(C(=O)Nc2ccccc2C(F)(F)F)[n+]2ccc(C(=O)NCCO)cc12`: 11.7%; for `Cc1ccc(NCC(=O)N/N=C/c2c[nH]c3ccccc23)cc1`: 11.4%.
To `COc1ccc(-c2nnc(SCC(=O)c3ccc[nH]3)n2-c2ccccc2)cc1` belongs -0.875%.
As for `COc1ccc2oc(=O)c(C(=O)N3CCCC3)cc2c1`, the “hERG current change (%, negative = inhibition) at 10uM” value is 14.7%.
As for `COc1ccc2cc(C(=O)C3CCCN(C(=O)/C=C/c4ccccn4)C3)ccc2c1` (stereo not shown), the “hERG current change (%, negative = inhibition) at 10uM” value is given as -18.3%.
With `CCOC(=O)N1CCN(C(=O)c2cc3ccccc3o2)CC1`, the “hERG current change (%, negative = inhibition) at 10uM” value is 17.7%.
On to `CCS(=O)(=O)c1nc2ccccc2n1CC(=O)N1CCOCC1`, for which the “hERG current change (%, negative = inhibition) at 10uM” value came out at 10.8%.
With `CC(C)NC(=O)COc1cccc2ccccc12`, the “hERG current change (%, negative = inhibition) at 10uM” value was -18.7%.
Turning to `O=C(O)C(=O)O.c1ccc(CNc2nc(CN3CCOCC3)nc3scc(-c4ccccc4)c23)cc1`, the “hERG current change (%, negative = inhibition) at 10uM” value is reported as -20.6%.
On to `CC1=C(C(=O)OCC2CCCO2)C(c2ccncc2)C2=C(CCCC2=O)N1` (stereo not shown), for which the “hERG current change (%, negative = inhibition) at 10uM” value came out at 33.1%.
For the molecule `COc1ccc(C2/C=C\CN(CC3CC3)CC(=O)N2Cc2ccc(F)cc2)cc1` (stereo not shown), the “hERG current change (%, negative = inhibition) at 10uM” value is recorded as -21%.
For the molecule `COc1ccc(CCNC(=O)CC2SC(=NCCC(C)C)NC2=O)cc1OC` (stereo not shown), the “hERG current change (%, negative = inhibition) at 10uM” value was -5.09%.
For the molecule `Cc1cccc(C)c1NC(=S)N/N=C/c1ccc(C(=O)O)cc1`, the “hERG current change (%, negative = inhibition) at 10uM” value stood at 6.79%.
For the molecule `OC(CNCc1ccccn1)c1ccccc1` (stereo not shown), the “hERG current change (%, negative = inhibition) at 10uM” value is listed as -3.94%.
For `COC(=O)C(CCSC)NC(=O)c1cn(-c2ccc(OC)cc2)c(=O)c2ccccc12` (stereo not shown), the “hERG current change (%, negative = inhibition) at 10uM” value is reported as 6.24%.
As to `O=S(=O)(Nc1cccnc1Cl)c1ccc(F)cc1`, the “hERG current change (%, negative = inhibition) at 10uM” value is on record as 12.5%.
Consider `CCOC(=O)N/N=C(\C)c1ccc(C)c([N+](=O)[O-])c1`, for which the “hERG current change (%, negative = inhibition) at 10uM” value is given as -4.33%.
Consider `COc1cccc(CN(C)C(=O)C(Cc2ccccc2)NC(=O)c2ccccc2)c1OC` (stereo not shown), for which the “hERG current change (%, negative = inhibition) at 10uM” value is recorded as -12.9%.
Turning to `Cc1ccc(NC(=O)C2CCN(S(=O)(=O)c3ccc4c(c3)oc(=O)n4C)CC2)cc1`, the “hERG current change (%, negative = inhibition) at 10uM” value stood at 10.1%.
Take `CCOC(CNc1ncnc2c1cnn2C)OCC`: the “hERG current change (%, negative = inhibition) at 10uM” value is 20.1%.
Take `CN(C)c1cc(=O)n2c(n1)SCCC2`: the “hERG current change (%, negative = inhibition) at 10uM” value is reported as 14.1%.
With `c1ccc(Sc2cnc3ccccc3n2)cc1`, the “hERG current change (%, negative = inhibition) at 10uM” value is listed as 7.23%.
Regarding `CCOc1ccc(S(=O)(=O)N2CCN(C(=O)Cc3ccc(S(=O)(=O)N4CCOCC4)s3)CC2)cc1`, the “hERG current change (%, negative = inhibition) at 10uM” value is recorded as -6.03%.
For `COc1ccc(C2C(C(=O)c3sc(C)nc3C)=C(O)C(=O)N2CCCn2ccnc2)cc1` (stereo not shown), the “hERG current change (%, negative = inhibition) at 10uM” value amounted to 18.2%.
Turning to `Cc1cc(-n2c(C)c3c(C)nnc(C)c3c2C)ccc1N`, the “hERG current change (%, negative = inhibition) at 10uM” value was found to be 7.6%.
As for `CC(=O)Nc1ccc(SCC(=O)c2cc(C)n(Cc3cccs3)c2C)cc1`, the “hERG current change (%, negative = inhibition) at 10uM” value is recorded as 5.48%.
Regarding `CCc1ccc(NC2CC(=O)N(c3ccc(OC)cc3OC)C2=O)cc1` (stereo not shown), the “hERG current change (%, negative = inhibition) at 10uM” value is 8.99%.
In the case of `Cc1ccc(CN2CCC(C(=O)Nc3cccc(-c4cccc(F)c4)c3)CC2)o1`, the “hERG current change (%, negative = inhibition) at 10uM” value is -69.1%.
